In the supplement of paper PMC4967469:
By IC50 is meant the dose at which the fit gives 50% viability; a fit beyond the top or the lowest dose is shown as a bound at that dose. AUC sums up the same curve from the lowest dose to the 256-fold higher top dose; it is 1 without any effect and falls as sensitivity rises. For some of these results: The top dose, if marked as inferred, is not printed in the source and was worked back from the curve model.

Key:
Test in all cases: Viability of human cancer cell lines after 72 h of drug (GDSC screen)
Vismodegib = compound: CS(=O)(=O)c1ccc(C(=O)Nc2ccc(Cl)c(-c3ccccn3)c2)c(Cl)c1 [Vismodegib]; conditions: top dose 10 µM; top dose inferred
Method: (§1)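 Human cancer cell lines in 384-well plates, medium with 10% serum, drug for 72 h over a 256-fold dose range (nine 2-fold or five 4-fold steps up to the top dose). Adherent lines were fixed and stained with the nucleic acid dye Syto60, suspension lines read with resazurin; signal relative to control wells, capped at 0 and 100%. One two-parameter sigmoid per drug and line, fitted in a mixed model over all curves with the slope shared within a line.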

17-AAG = compound: C=CCNC1=C2C[C@@H](C)C[C@H](OC)[C@H](O)[C@@H](C)/C=C(\C)[C@H](OC(N)=O)[C@@H](OC)/C=C\C=C(/C)C(=O)NC(=CC1=O)C2=O [17-AAG]; conditions: top dose 1 µM
Method: as §1

BIX02189 = compound: CN(C)Cc1cccc(N=C(c2ccccc2)c2c(O)[nH]c3cc(C(=O)N(C)C)ccc23)c1 [BIX02189]; conditions: top dose 20 µM; top dose inferred
Method: as §1

UNC1215 = compound: O=C(c1ccc(C(=O)N2CCC(N3CCCC3)CC2)c(Nc2ccccc2)c1)N1CCC(N2CCCC2)CC1 [UNC1215]; conditions: top dose 1 µM; top dose inferred
Method: as §1

CCT018159 = compound: CCc1cc(-c2n[nH]c(C)c2-c2ccc3c(c2)OCCO3)c(O)cc1O [CCT018159]; conditions: top dose 10 µM; top dose inferred
Method: as §1

TG101348 = compound: Cc1cnc(Nc2ccc(OCCN3CCCC3)cc2)nc1Nc1cccc(S(=O)(=O)NC(C)(C)C)c1 [TG101348]; conditions: top dose 10.24 µM
Method: as §1

Dimethyloxalylglycine = compound: COC(=O)CNC(=O)C(=O)OC [Dimethyloxalylglycine]; conditions: top dose 4000 µM; top dose inferred
Method: as §1

VX-11e = compound: Cc1cnc(Nc2ccc(F)cc2Cl)nc1-c1c[nH]c(C(=O)N[C@H](CO)c2cccc(Cl)c2)c1 [VX-11e]; conditions: top dose 5.12 µM; top dose inferred
Method: as §1

OSI-027 = compound: COc1cccc2cc(-c3nc([C@H]4CC[C@H](C(=O)O)CC4)n4ncnc(N)c34)[nH]c12 [OSI-027]; conditions: top dose 20 µM
Method: as §1

Doxorubicin = compound: COc1cccc2c1C(=O)c1c(O)c3c(c(O)c1C2=O)C[C@@](O)(C(=O)CO)C[C@@H]3O[C@H]1C[C@H](N)[C@H](O)[C@H](C)O1 [Doxorubicin]; conditions: top dose 1.024 µM
Method: as §1

Row | Cell Line | AUC (Vismodegib) | IC50 (Vismodegib) [µM] | AUC (17-AAG) | IC50 (17-AAG) [µM] | AUC (BIX02189) | IC50 (BIX02189) [µM] | AUC (UNC1215) | IC50 (UNC1215) [µM] | AUC (CCT018159) | IC50 (CCT018159) [µM] | AUC (TG101348) | IC50 (TG101348) [µM] | AUC (Dimethyloxalylglycine) | IC50 (Dimethyloxalylglycine) [µM] | AUC (VX-11e) | IC50 (VX-11e) [µM] | AUC (OSI-027) | IC50 (OSI-027) [µM] | AUC (Doxorubicin) | IC50 (Doxorubicin) [µM]
1 | NCI-H2135 (non-small cell lung carcinoma, adherent) | 0.988 | > 10 | 0.991 | > 1 | 0.895 | > 20 | 0.99 | > 1 | 0.986 | > 10 | 0.873 | 9.3 | 0.603 | 474 | 0.437 | 0.216 | 0.432 | 0.822 | 0.683 | 0.204
2 | NCI-H2172 (non-small cell lung carcinoma, adherent) | 0.982 | > 10 | 0.733 | 0.373 | 0.946 | > 20 | 0.981 | > 1 | 0.967 | > 10 | 0.912 | > 10.2 | 0.519 | 287 | 0.965 | > 5.12 | 0.819 | 17 | 0.744 | 0.422
3 | NCI-H2227 (small cell lung carcinoma, semi-adherent) | 0.986 | > 10 | 0.882 | > 1 | 0.981 | > 20 | 0.975 | > 1 | 0.957 | > 10 | 0.667 | 1.99 | 0.808 | 2410 | 0.986 | > 5.12 | 0.531 | 1.54 | 0.931 | > 1.02
4 | NCI-H2342 (lung adenocarcinoma, adherent) | 0.986 | > 10 | 0.949 | > 1 | 0.96 | > 20 | 0.984 | > 1 | 0.96 | > 10 | 0.976 | > 10.2 | 0.39 | 121 | 0.975 | > 5.12 | 0.921 | > 20 | 0.424 | 0.0389
5 | NCI-H2405 (lung adenocarcinoma, adherent) | 0.986 | > 10 | 0.76 | 0.389 | 0.957 | > 20 | 0.902 | > 1 | 0.873 | > 10 | 0.935 | > 10.2 | 0.504 | 257 | 0.887 | > 5.12 | 0.734 | 6.3 | 0.693 | 0.237
6 | NCI-H2444 (non-small cell lung carcinoma, adherent) | 0.988 | > 10 | 0.892 | > 1 | 0.98 | > 20 | 0.987 | > 1 | 0.965 | > 10 | 0.943 | > 10.2 | 0.948 | > 4000 | 0.962 | > 5.12 | 0.977 | > 20 | 0.977 | > 1.02
7 | NCI-H2452 (mesothelioma, adherent) | 0.984 | > 10 | 0.633 | 0.157 | 0.983 | > 20 | 0.975 | > 1 | 0.949 | > 10 | 0.984 | > 10.2 | 0.674 | 843 | 0.984 | > 5.12 | 0.984 | > 20 | 0.883 | > 1.02
8 | NCI-H3122 (lung adenocarcinoma, adherent) | 0.987 | > 10 | 0.295 | 0.0162 | 0.974 | > 20 | 0.985 | > 1 | 0.674 | 1.95 | 0.922 | > 10.2 | 0.548 | 338 | 0.886 | > 5.12 | 0.522 | 1.44 | 0.401 | 0.034
9 | NCI-SNU-1 (stomach, suspension) | 0.981 | > 10 | 0.92 | > 1 | 0.86 | 17.7 | 0.978 | > 1 | 0.984 | > 10 | 0.733 | 3.03 | 0.894 | > 4000 | 0.791 | 2.39 | 0.635 | 2.99 | 0.504 | 0.0655
10 | NCI-SNU-16 (stomach, suspension) | 0.981 | > 10 | 0.81 | 0.452 | 0.99 | > 20 | 0.986 | > 1 | 0.988 | > 10 | 0.947 | > 10.2 | 0.952 | > 4000 | 0.991 | > 5.12 | 0.965 | > 20 | 0.982 | > 1.02
11 | NKM-1 (acute myeloid leukaemia, suspension) | 0.928 | > 10 | 0.668 | 0.187 | 0.829 | 13 | 0.957 | > 1 | 0.824 | 6.17 | 0.39 | 0.316 | 0.393 |  | 0.882 | > 5.12 | 0.118 | < 0.0781 | 0.374 | 0.0284
12 | NU-DUL-1 (B-cell lymphoma, suspension) | 0.975 | > 10 | 0.993 | > 1 | 0.653 | 3.02 | 0.985 | > 1 | 0.954 | > 10 | 0.644 | 1.47 | 0.445 | 183 | 0.911 | 4.8 | 0.031 | < 0.0781 | 0.427 | 0.0421
13 | OAW-42 (ovary, adherent) | 0.986 | > 10 | 0.886 | > 1 | 0.98 | > 20 | 0.984 | > 1 | 0.926 | > 10 | 0.873 | > 10.2 | 0.581 |  | 0.983 | > 5.12 | 0.5 | 1.25 | 0.62 | 0.141
14 | OCI-AML2 (acute myeloid leukaemia, suspension) | 0.995 | > 10 | 0.731 | 0.23 | 0.78 | 6.18 | 0.993 | > 1 | 0.817 | 3.88 | 0.641 | 1.42 | 0.623 | 498 | 0.472 | 0.273 | 0.362 | 0.577 | 0.436 | 
15 | OCI-M1 (acute myeloid leukaemia, suspension) | 0.994 | > 10 | 0.987 | > 1 | 0.955 | > 20 | 0.991 | > 1 | 0.993 | > 10 | 0.123 | 0.0655 | 0.77 | 1190 | 0.839 | 2.37 | 0.062 | < 0.0781 | 0.664 | 0.162
16 | OCUM-1 (stomach, adherent) | 0.987 | > 10 | 0.553 | 0.0886 | 0.985 | > 20 | 0.985 | > 1 | 0.743 | 3.4 | 0.969 | > 10.2 | 0.902 | > 4000 | 0.962 | > 5.12 | 0.841 | 16.3 | 0.582 | 0.11
17 | OE19 (oesophagus, adherent) | 0.977 | > 10 | 0.415 | 0.0354 | 0.986 | > 20 | 0.985 | > 1 | 0.887 | > 10 | 0.981 | > 10.2 | 0.851 | 3720 | 0.986 | > 5.12 | 0.984 | > 20 | 0.567 | 0.1
18 | OE33 (oesophagus, adherent) | 0.973 | > 10 | 0.799 | 0.589 | 0.97 | > 20 | 0.982 | > 1 | 0.902 | > 10 | 0.945 | > 10.2 | 0.546 | 341 | 0.902 | > 5.12 | 0.821 | 14.6 | 0.757 | 0.415
19 | OPM-2 (myeloma, suspension) | 0.994 | > 10 | 0.992 | > 1 | 0.727 | 4.75 | 0.993 | > 1 | 0.933 | > 10 | 0.747 | 2.76 | 0.199 | 40.5 | 0.962 | > 5.12 | 0.625 | 2.58 | 0.835 | 0.505
20 | OSC-20 (head and neck, adherent) | 0.98 | > 10 | 0.585 | 0.112 | 0.948 | > 20 | 0.971 | > 1 | 0.896 | > 10 | 0.953 | > 10.2 | 0.177 | 21 | 0.959 | > 5.12 | 0.673 | 4.2 | 0.42 | 0.0371
21 | OVMIU (ovary, adherent) | 0.971 | > 10 | 0.788 | 0.561 | 0.926 | > 20 | 0.978 | > 1 | 0.86 | > 10 | 0.686 | 2.44 | 0.872 | > 4000 | 0.79 | 2.92 | 0.288 | 0.268 | 0.621 | 0.15
22 | P12-ICHIKAWA (T-cell lymphoblastic leukaemia, suspension) | 0.952 | > 10 | 0.994 | > 1 | 0.926 | 19.7 | 0.994 | > 1 | 0.991 | > 10 | 0.864 | 5.81 | 0.27 | 66.6 | 0.983 | > 5.12 | 0.493 | 1.2 | 0.454 | 
23 | P30-OHK (lymphoblastic leukaemia, suspension) | 0.983 | > 10 | 0.98 | > 1 | 0.782 | 6.95 | 0.99 | > 1 | 0.948 | > 10 | 0.506 | 0.662 | 0.597 | 439 | 0.962 | > 5.12 | 0.183 | 0.176 | 0.476 | 0.0557
24 | P31-FUJ (acute myeloid leukaemia, suspension) | 0.994 | > 10 | 0.995 | > 1 | 0.992 | > 20 | 0.994 | > 1 | 0.995 | > 10 | 0.925 | 9.56 | 0.919 | 3510 | 0.985 | > 5.12 | 0.901 | 14.9 | 0.99 | > 1.02
25 | P32-ISH (Burkitt lymphoma, suspension) | 0.983 | > 10 | 0.995 | > 1 | 0.902 | 14.5 | 0.992 | > 1 | 0.995 | > 10 | 0.854 | 5.16 | 0.34 | 102 | 0.979 | > 5.12 | 0.192 | 0.212 | 0.586 | 0.103
